# Results reported in PubChem BioAssay AID1671188 (National Center for Advancing Translational Sciences (NCATS), 2021).
# Several values for one entry are separate records, joined by “and”; a condition that tells them apart may be missing. Equal values may be shown once. About 250 (0.25%) of roughly 100,000 compounds were called active. Inconclusive results, whose numbers are uncertain, are shown with a selection of clear calls. The call rests on the fitted dose curve; in most records, active means well fitted inhibition curve with a large enough effect; inconclusive means small, poorly fitted or top-dose-only effect; inactive means flat fitted curve, though single readings scatter. Potencies beside an inconclusive call are fits to weak or partial responses and may not hold up.
# Target: Alanine aminotransferase 2 (Homo sapiens) (UniProt Q8TD30)
# Assay: Primary qHTS assay for inhibitors of Glutamate pyruvate transaminase 2 (GPT2); further: nearly all actives have a fitted effect of over 60% in size
# Conditions: Recombinant GPT2, coupled pyruvate oxidase/HRP Amplex Red fluorescence; activity change, negative = inhibition: at 57.7 µM (top of the series) unless noted; series mostly up to 57.7 µM
# Method in brief: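 GPT2 10ng/uL, a-KG 250uM, L-Ala 2mM, HEPES pH7.5 + 0.0001% Tween; 30 min RT. Then Amplex mix (PO/HRP/ThPP), 30 min RT dark, fluorescence. AOA 50uM used as positive control.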
# On the % scale 0 is the no-effect control and ±100 the full control effect; potency means the concentration at half of the fitted maximal effect; tags describe the fitted curve by direction and shape.
# Chain of UniProt Q8TD30 (Q8TD30 whole entry, looked up): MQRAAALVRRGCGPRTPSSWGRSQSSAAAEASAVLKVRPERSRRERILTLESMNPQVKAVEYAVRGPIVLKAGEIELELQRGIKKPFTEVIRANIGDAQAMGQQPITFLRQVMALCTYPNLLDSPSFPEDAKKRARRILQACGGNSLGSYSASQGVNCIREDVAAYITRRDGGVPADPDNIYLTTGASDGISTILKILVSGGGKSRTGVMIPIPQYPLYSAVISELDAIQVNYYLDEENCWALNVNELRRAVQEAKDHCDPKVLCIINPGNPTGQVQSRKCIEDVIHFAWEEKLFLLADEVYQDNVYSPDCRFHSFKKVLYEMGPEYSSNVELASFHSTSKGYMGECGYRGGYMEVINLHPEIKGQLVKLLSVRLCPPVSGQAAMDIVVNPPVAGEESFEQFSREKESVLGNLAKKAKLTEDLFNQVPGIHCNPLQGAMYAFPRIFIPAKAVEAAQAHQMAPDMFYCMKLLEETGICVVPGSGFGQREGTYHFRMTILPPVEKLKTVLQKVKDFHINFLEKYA
Compound,outcome,"activity change, negative = inhibition",Potency
O=C(CCc1nc2ccccc2c(=O)[nH]1)NC1CCCc2c1[nH]c1c(Cl)cccc21 (centres undefined),inactive,–,–
Cc1ccc(CN(C(=O)c2ccco2)c2ccc(CC(=O)N(C)Cc3ccccc3)cc2)cc1,–,inactive: -2.55%,–
COc1ccc(NC(=O)Nc2cccn3nc(C)nc23)cc1,–,–,"inconclusive: 6.31 µM [inhibitor, single point]"
CCNC(=O)N1C[C@@H](F)[C@@H](OCc2nc3ccc(C)cc3[nH]2)C1,–,inactive: -0.523% [at 88.5 µM],–
C[C@@H](Nc1ncnc2[nH]c(-c3ccc(O)cc3)cc12)c1ccccc1,–,–,"inconclusive: 39.8 µM [inhibitor, single point]"
COc1cccc(NC(=O)CCC2CCN(S(=O)(=O)c3ccccc3)CC2)c1,–,–,"inconclusive: 39.8 µM [inhibitor, single point]"
CCc1cccc2c(C(CC(=O)NCCC(C)C)c3cccc(OC)c3OC)c[nH]c12 (centres undefined),–,–,"inconclusive: 35.5 µM [inhibitor, single point]"
C1=C(c2nc(-c3cccc4[nH]ncc34)cc3c2ccn3Cc2cccnc2)CCOC1,–,–,"inconclusive: 56.2 µM [inhibitor, single point]"
O=C(Cc1ccc(Cl)cc1)NC1CCN(c2cc(-c3ccc(F)cc3)[nH]n2)C1 (centres undefined),–,–,"inconclusive: 10 µM [inhibitor, partial curve]"
O=C(Nc1cccc2ccccc12)O[C@@H]1CO[C@H]2[C@@H]1OC[C@@H]2n1nnnc1Sc1ccccc1,–,–,"inconclusive: 17.8 µM [inhibitor, partial curve]"
CN(c1ccccc1)c1cc(=O)c2ccnc(N3CCN(c4ccccn4)CC3)c2o1,–,–,"inconclusive: 35.5 µM [inhibitor, partial curve, poor fit]"
COc1ccc(-c2cc(N3CCCN(C(=O)c4nn(C)c5ccccc45)CC3)n[nH]2)cc1,–,–,"inconclusive: 35.5 µM [inhibitor, single point]"
Cc1nnc(CN2CCC3(C2)C(=O)N(C)C(=O)N3C)o1 (centres undefined),–,–,"inconclusive: 3.98 µM [inhibitor, partial curve, poor fit]"
COc1ccc(C(=O)N2CCC3(CC2)C(=NC2CCCCC2)NC(=O)N3c2cc(F)cc(F)c2)cc1,–,inactive: -2.93%,–
CNC(=O)c1cn2c(n1)CN([S+](=O)([O-])c1cccc(C(F)(F)F)c1)CC2,–,–,"inconclusive: 0.708 µM [inhibitor, full curve, poor fit]"
Cc1ccc(C(=O)N2CCC3(CC2)NC(=O)N(c2cccc(F)c2)N3)cc1,–,–,"inconclusive: 39.8 µM [inhibitor, single point]"
N#Cc1ccc(CN2CCc3nc(C(=O)NCc4cccc(F)c4)oc3CC2)cc1,–,inactive: 0.497% [at 88.5 µM],–
CCS(=O)(=O)N1CCCC(n2c(C)cnc2C2CC2)C1 (centres undefined),–,–,"inconclusive: 6.31 µM [inhibitor, single point]"
COCCn1cc(C(=O)NC2CCCc3c2[nH]c2ccccc32)c2ccccc2c1=O (centres undefined),–,–,"inconclusive: 39.8 µM [inhibitor, single point]"
O=C(O)CCn1ncc2cc(OCC3CCN(C(=O)Oc4ccccc4)CC3)ccc21,–,inactive: 0.743% [at 88.5 µM],–
Cc1cc(C)cc(C(=O)N2CCC(Cc3nc(-c4cnccn4)no3)CC2)c1,–,inactive: -1.21%,–
Cc1ccc(CN2CC(Oc3ccccc3C(=O)N3CCOCC3)C2)s1,inactive,–,–
Cc1cc(NC(=O)CC[C@H]2NC(=O)c3ccccc3NC2=O)nn1C,–,inactive: -3.34%,–

Compound,outcome,"activity change, negative = inhibition",Potency
CC(=O)N1CCc2[nH]cnc2C12CCN(C(=O)c1ccc(C)c(C)c1)CC2,–,–,"inconclusive: 5.62 µM [inhibitor, full curve, poor fit]"
CN1C[C@H]2CN(Cc3c[nH]c4ccccc34)CCN2C1=O,inactive [at 88.5 µM],–,–
O=C(N1CCN(S(=O)(=O)c2cccs2)CC1)N1CC2CC(C1)[C@H]1CCCC(=O)N1C2 (some centres undefined),–,–,"inconclusive: 6.31 µM [inhibitor, single point]"
O=C(O)CCC(=O)OC[C@@H](NC(=O)C(Cl)Cl)[C@H](O)c1ccc([N+](=O)[O-])cc1,–,–,"inconclusive: 39.8 µM [inhibitor, single point]"
CC(C)C[C@@H]1N[C@H](C(=O)NC(C)C)Cc2cn(Cc3nccn3C)c3cccc1c23,–,inactive: -0.0525% [at 88.5 µM],–
COc1ccc(Cn2c(=O)c(C(=O)NCC(F)(F)F)nc3cccnc32)cc1,–,inactive: -0.285%,–
Nc1ncn([C@@H]2O[C@H](CO)[C@@H](O)[C@@H]2O)c(=O)n1,–,inactive: -4.84%,–
Cc1cc(F)cc(CN2CCOc3cc([S+](=O)([O-])N(C)C)ccc3C2)c1,–,inactive: -2.39% [at 88.5 µM],–
COc1ccccc1-n1cc(C(=O)N2CCc3c(Cl)cccc3C2)cn1,–,–,"inconclusive: 39.8 µM [inhibitor, single point]"
NC(=O)NC1N=C([O][Al])NC1=O (centres undefined),inactive,–,–
CN1CC(=O)N(c2ccccc2)Cc2c1ncnc2N1CCN(c2ccccn2)CC1,–,inactive: -1.42%,–
COCc1nncn1C1CCN(C(=O)c2cccc(C(F)(F)F)c2)CC1,–,inactive: -8.02%,–
COc1ccccc1-c1cc2c(ccn2C)c(C(=O)NCC2CCN(C)C(=O)C2)n1 (centres undefined),inactive [at 88.5 µM],–,–
N#Cc1cccc(C(=O)N[C@H]2[C@H](O)[C@H](O)C[C@@H]2c2cccnc2)c1,–,inactive: 0.941% [at 88.5 µM],–
CC(C)CC(=O)O[C@@H]1OC=C(CO[C@@H]2O[C@H](CO)[C@@H](O)[C@H](O)[C@H]2O)[C@H]2[C@@H]3O[C@H]3[C@@](O)(CO)[C@@H]12,–,inactive: -1.65% [at 27.3 µM],–
Cc1ccc(-c2cc(N3CCC(CNC(=O)c4ccc5nc[nH]c5c4)CC3)n[nH]2)cc1,–,–,"inconclusive: 10 µM [inhibitor, partial curve]"
OCC1(CN2CCCC2)CCN(Cc2cc(F)cc(Cl)c2)CC1,–,–,"inconclusive: 7.08 µM [inhibitor, single point]"
Cc1cc2nc(CO[C@H]3CN(C4CCC4)C[C@H]3F)[nH]c2cc1C,–,inactive: 3.79% [at 88.5 µM],–
CCCn1c(C)cnc1C1CCN(C(=O)Nc2ccccc2OCC)C1 (centres undefined),–,–,"inconclusive: 8.91 µM [inhibitor, single point]"
COc1ccc(C(=O)N2C[C@@H](Oc3ccccc3)C[C@H]2C(=O)N2CCOCC2)cc1,–,–,"inconclusive: 6.31 µM [inhibitor, single point]"
COc1ccc(N2CCN(C3CCCN(CC4CC4)C3)CC2)cc1 (centres undefined),–,–,"inconclusive: 22.4 µM [inhibitor, single point]"
COc1cc(NC(=O)CN2C(=O)NC3(CCOCC3)C2=O)cc(OC)c1,–,–,"inconclusive: 6.31 µM [inhibitor, single point]"
CN(C)C(=O)CO[C@H]1COCCN(Cc2ccccn2)C1,–,inactive: 0.83% [at 88.5 µM],–

Compound,outcome,"activity change, negative = inhibition",Potency
CCCc1ccccc1OCC(=O)c1ccc2c(c1)N(CC(=O)NCC1CC1)C(=O)CO2,–,–,"inconclusive: 35.5 µM [inhibitor, single point]"
Cc1noc(C2CC3(CCN(C(=O)c4nccn4C)CC3)CN2C)n1 (centres undefined),–,–,"inconclusive: 1.26 µM [inhibitor, full curve, poor fit]"
CC(C)c1noc(-c2cccn3c(CNC(=O)CC4CCCCC4)nnc23)n1,–,–,"inconclusive: 4.47 µM [inhibitor, single point]"
CCNC(=O)NCC1c2cc(OC)c(OC)cc2CCN1C(=O)Nc1ccc(C)cc1 (centres undefined),inactive,–,–
COc1ccc(-n2cc(CN3C[C@@H](C)O[C@@H](C)C3)c(-c3cccc(F)c3)n2)cc1,–,inactive: -5.97%,–
COCC1CN(Cc2cccc3[nH]ccc23)CC12CCNCC2 (centres undefined),–,–,"inconclusive: 31.6 µM [inhibitor, single point]"
Cc1onc(-c2cnn(C)c2NCCc2ccccc2)c1C(=O)NCc1ccoc1,–,–,"inconclusive: 56.2 µM [inhibitor, single point]"
O=C(Cc1ccc2c(c1)OCO2)N1CCNc2cnc(Nc3cccc(F)c3)nc2C1,–,inactive: 2.12% [at 88.5 µM],–
O=c1c(O)c(-c2cc(O)c(O)c(O)c2)oc2cc(O)cc(O)c12,–,–,"inconclusive: 4.85 µM [inhibitor, partial curve, poor fit] and inconclusive: 39.8 µM [inhibitor, single point]"
Cc1cc(Cn2cnc3c2CC(C(=O)O)N(C(=O)C(c2ccccc2)c2ccccc2)C3)ccc1N(C)C (centres undefined),–,–,"inconclusive: 17.8 µM [inhibitor, single point]"
CSc1ccc(-c2cccc(C(=O)NCC(=O)NCCc3ccccc3)c2)cc1,inactive,–,–
O=C(Cn1nc2n(c1=O)CCCC2)Nc1ccccc1,–,–,"inconclusive: 7.08 µM [inhibitor, single point]"
Cc1ccc2nc(C3CCCN(Cc4cccc(-c5cccnc5)c4)C3)[nH]c(=O)c2c1 (centres undefined),–,–,inactive
CCCS(=O)(=O)N1C[C@@H](Oc2ccccc2)C[C@H]1C(=O)NCCOC,–,inactive: -6.31%,–
CCOc1ccc(C(=O)N2CCC3(CC2)NC(=O)N(c2ccc(F)cc2)N3)cc1,–,–,"inconclusive: 35.5 µM [inhibitor, single point]"
Cc1cc(C(=O)N2CC(Cn3c(C)cnc3-c3ccncc3)C2)nn1C,–,inactive: 4.44%,–
O=C(N[C@@H]1CN(C(=O)NC2CCCCC2)CCC[C@H]1O)c1ccc(OCc2ccccc2)cc1,–,inactive: 3.94%,–
COCc1ncc(C)n1CC1CCN(S(=O)(=O)c2c(C)noc2C)CC1,inactive,–,–
O=C(CN1CCOc2c(O)cc(-c3csc4ccccc34)cc2C1)N1CCOCC1,inactive,–,–
COCCNc1ncccc1-c1noc([C@@H]2CCCN2C2CCOCC2)n1,–,–,"inconclusive: 1.12 µM [inhibitor, full curve, poor fit]"
CC(=O)/C=C/C1(O)C(C)CC(O[C@@H]2O[C@H](CO)[C@@H](O)[C@H](O)[C@H]2O)CC1(C)C (some centres undefined),–,inactive: -15.8% [at 27.3 µM],–
COc1ccc(-c2cc(N3CCCN(C(=O)c4ccc(C)c(C)c4)CC3)n[nH]2)cc1,–,–,"inconclusive: 20 µM [inhibitor, partial curve, poor fit]"
Cc1ccc(-c2cc(-c3cccnc3)c3cncn3c2)cn1,–,–,"inconclusive: 12.6 µM [inhibitor, single point]"
